From PubChem BioAssay AID360 (National Center for Advancing Translational Sciences (NCATS), 2006)
Screen size: about 48,000 compounds; about 550 (1.1%) were called active. About 4% were inconclusive and are not listed. Cut-off read from the data, not from the text of the source: active = potency below about 15 µM; inconclusive = mostly about 16 µM to 33 µM; inactive = weaker than that. The list shows a part of the results.

Biological target: Lysosomal acid glucosylceramidase (Homo sapiens) (UniProt P04062)
Sequence of UniProt P04062 (P04062 whole entry, looked up): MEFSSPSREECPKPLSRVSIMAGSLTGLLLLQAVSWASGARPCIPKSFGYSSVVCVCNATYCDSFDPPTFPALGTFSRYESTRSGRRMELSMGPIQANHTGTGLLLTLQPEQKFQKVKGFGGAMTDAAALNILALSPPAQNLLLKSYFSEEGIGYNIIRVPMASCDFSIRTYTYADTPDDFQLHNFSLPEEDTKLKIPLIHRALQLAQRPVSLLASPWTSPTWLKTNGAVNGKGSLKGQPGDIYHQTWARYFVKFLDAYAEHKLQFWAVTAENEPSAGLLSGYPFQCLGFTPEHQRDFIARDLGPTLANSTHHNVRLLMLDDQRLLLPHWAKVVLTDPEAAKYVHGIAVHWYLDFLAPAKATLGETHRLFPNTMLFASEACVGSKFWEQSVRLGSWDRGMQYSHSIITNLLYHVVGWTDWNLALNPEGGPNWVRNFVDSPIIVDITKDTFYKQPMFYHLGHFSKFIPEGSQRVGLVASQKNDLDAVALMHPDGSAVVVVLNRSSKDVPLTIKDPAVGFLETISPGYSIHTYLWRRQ
Test: Glucocerebrosidase;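 note: the screen sought inhibitors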
Details: purified enzyme, resorufin glucoside fluorescence (screen aimed at inhibitors), 20 min
Procedure, shortened: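 Wild-type enzyme at 0.2 nM final in 50mM citric acid/KH2PO4, 10mM sodium taurocholate, 0.01% tween-20, pH 5.9, with resorufin beta-D-glucopyranoside at 30 uM final. Compounds titrated, 20 min at RT, red fluorescence read; AC50 from titration.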
Potency is the fitted concentration of half-maximal effect.

Potency, inactive:
COc1ccc(CCNS(=O)(=O)c2ccccc2)cc1OC > 76.9 µM, CCOC(=O)Nc1ccc(C)cc1Br > 76.9 µM, O=C(COC(=O)C1CC2C=CC1C2)Nc1ccc2c(c1)OC(F)(F)O2 (configuration not stated) > 76.9 µM, O=C(Nc1ccc(Cl)c(Cl)c1)OCc1cccnc1 > 76.9 µM, Cc1ccc(-c2nnn(CC(=O)Nc3ccccc3N3CCOCC3)n2)cc1 > 76.9 µM, COc1c(Cl)cc(Cl)cc1C(=O)Nc1ccccc1N1CCN(C(C)=O)CC1 > 76.9 µM, O=C1CSC(c2cn(-c3ccccc3)nc2-c2cccs2)N1CC1CCCO1 (configuration not stated) > 76.9 µM, CC1(C)CC(=O)C(C=Nc2ccccc2C(=O)O)=C(O)C1 > 76.9 µM, O=C(c1ccccc1/S(=N/S(=O)(=O)c1ccccc1)N1CCOCC1)N1CCOCC1 (configuration not stated) > 76.9 µM, COc1cccc(CSc2nnc(-c3ccco3)n2C)c1 > 76.9 µM, COC(=O)Cc1c(C)nc2nc(Cc3ccccc3)[nH]n2c1=O > 76.9 µM, Cc1ccc(NCc2nnc(SCC(=O)N3CCCc4ccccc43)o2)c(C)c1 > 76.9 µM, Cn1nnnc1SCC(=O)NC(C)(C)C > 76.9 µM, O=C(O)CCCNS(=O)(=O)c1cccs1 > 76.9 µM, Cc1nc(SCC(=O)NCc2ccc3c(c2)OCO3)c(C#N)c2c1CCCC2 > 76.9 µM, Cc1ccc(-c2nc3ccccc3c(=O)n2CCCn2ccnc2)cc1 > 76.9 µM, CS(=O)(=O)N(CCc1ccccc1)CC(=O)NCC1CCCO1 (configuration not stated) > 76.9 µM, CC(C)Cn1c(=O)c(C(=O)NCc2ccccn2)c(O)c2ccccc21 > 76.9 µM, CCOC(=O)Cc1cc(=O)n2[nH]c(C)c(-c3ccccc3)c2n1 > 76.9 µM, CCOc1ccc(C2C(C#N)=C(N)Oc3n[nH]c(C)c32)cc1OC(=O)C1CC1 (configuration not stated) > 76.9 µM, COc1cccc(C(C(=O)NC(C)(C)C)N(C(=O)CCC(=O)Nc2cc(C)on2)C2CC2)c1OC (configuration not stated) > 76.9 µM, CCN(CC)C(=O)CSC(=Nc1ccccc1F)NC#N > 76.9 µM, CC1CCCC(NC(=O)c2n[nH]c(=O)c3ccccc23)C1C (configuration not stated) > 76.9 µM, COc1ccc(OC)c(NC(=O)CCC(=O)Nc2nnc(C(F)(F)F)s2)c1 > 76.9 µM, COC(=O)c1ccc(CSc2nc3c(cnn3-c3ccc(C)cc3)c(=O)[nH]2)o1 > 76.9 µM, COc1cc(OC)cc(OCC(O)Cn2ccnc2C)c1 (configuration not stated) > 76.9 µM, CCOC(=O)Cn1c2ccc(OC)cc2c2nc3ccccc3nc21 > 76.9 µM, O=C(O)CN1C(=O)CNC1=O > 76.9 µM, CC(=O)Cc1nsc(NC(=O)c2c(-c3ccccc3Cl)noc2C)n1 > 76.9 µM, O=C(c1ccncc1)c1ccc(Br)cc1 > 76.9 µM, O=C(NCc1cccs1)c1nc2c(nnn2Cc2ccc(F)cc2)c(=O)[nH]1 > 76.9 µM, COc1cc2nc(C3CC3)n(NC(=O)c3ccc(F)cc3)c(=O)c2cc1OC > 76.9 µM, CC(=O)c1cccc(NC(=O)Nc2ccc3c(c2)N(C)C(=O)CS3)c1 > 76.9 µM, CCCC(=O)Nc1nnc(Sc2ccc(N(C)C)cc2)s1 > 76.9 µM, COc1ccc(C2C(C(=O)O)CC(=O)N2c2ccc(OC)cc2)cc1 (configuration not stated) > 76.9 µM, CSc1ccccc1NC(=O)C1CC(c2ccccc2O)=NO1 (configuration not stated) > 76.9 µM, COc1ccc(NC(=O)COC(=O)c2ccc(Br)o2)cc1OC > 76.9 µM, CC1(C)Cc2c(sc3c2c(=N)n(Cc2ccco2)c(=O)n3Cc2ccc(Cl)cc2)CO1 > 76.9 µM, CCOC(=O)c1[nH]c(C(=O)O)c(CCN(CC)CC)c1C > 76.9 µM, Cc1cc(NC(=O)c2ccc(S(=O)(=O)N3CCCC3)cc2)nc2c1c(=O)oc1ccccc12 > 76.9 µM, CCCCOCCCNC(=O)N[C@@H](CC(C)C)C(=O)O > 76.9 µM, CCOCCCNC(=O)C(Cc1ccccc1)NC(=O)c1ccco1 (configuration not stated) > 76.9 µM, Cc1ccc2c(C)nc(Nc3ncc4c(n3)CCCC4=O)nc2c1 > 76.9 µM, Cc1cc(C)c(C#N)c(SCc2ccccc2C(=O)O)n1 > 76.9 µM, Cc1ccc(NC2c3ncccc3C(=O)N2C2CCCCC2)cc1 (configuration not stated) > 76.9 µM, CCC(Sc1nc2ccccc2c(=O)n1CC1CCCO1)C(=O)NCc1cccnc1 (configuration not stated) > 76.9 µM, Cc1cc(N2CCC(C(=O)N3CCN(c4cccc(C)c4C)CC3)CC2)n2ncnc2n1 > 76.9 µM, O=C(Nc1cccc(NC(=O)c2ccc(-c3cccc(Br)c3)o2)c1)c1ccco1 > 76.9 µM, O=C(CN1C(=O)c2ccccc2C1=O)OCC(=O)N1CCc2ccccc2C1 > 76.9 µM, CCC(=O)N(CC)c1nc(-c2ccc(OC)cc2)cs1 > 76.9 µM, Cn1c(=O)n(C)c2cc(S(=O)(=O)N3CCOCC3)ccc21 > 76.9 µM, Cc1n[nH]c(C)c1-c1nc2ccccc2[nH]1 > 76.9 µM, Cc1ccc2cc(CN(Cc3nnnn3Cc3ccco3)CC3CCCO3)c(=O)[nH]c2c1C (configuration not stated) > 76.9 µM, CCOc1ccccc1C(=O)Nc1ccccc1C(N)=O > 76.9 µM, CCOc1ccc(OCC)c(NC(=O)Cn2cccc2)c1 > 76.9 µM, COc1cccc(NC(=O)c2cccs2)c1 > 76.9 µM, NC(=O)C(F)(F)C12OC3C4C5CC(C6C5C3C61)C42 (configuration not stated) > 76.9 µM, CCOC(=O)Nc1cccc(OCC(=O)Nc2ccc(OC)cc2OC)c1 > 76.9 µM, Cc1cccc(C(OC(=O)c2ccco2)C(=O)NCc2ccccc2)n1 (configuration not stated) > 76.9 µM, C=C1C(C(=O)N2CCOCC2)C1C(=O)N1CCOCC1 (configuration not stated) > 76.9 µM, O=C(O)COCc1nc2ccccc2[nH]1 > 76.9 µM, O=C1CCC(C(=O)NCCCn2ccnc2)N1 (configuration not stated) > 76.9 µM, O=c1c(-c2ccccc2)[n+]([O-])c2ccccc2n1O > 76.9 µM, Cc1cc(N2CCCC2=O)cc(C)c1S(N)(=O)=O > 76.9 µM, CCOC(=O)N1CCN(C(=O)C2CC(=O)N(Cc3ccc(OC)cc3)C2)CC1 (configuration not stated) > 76.9 µM, COC(=O)c1cc(Cl)c(NC(=O)c2ccco2)cc1OC > 76.9 µM, c1coc(CNCC2OCCc3ccccc32)c1 (configuration not stated) > 76.9 µM, CCn1c(COc2cccc(C)c2)nnc1SCC(=O)N1CCCC1 > 76.9 µM, O=C1CCCN1CC(CN1CCOCC1)Sc1nc2ccccc2c(=O)n1-c1ccccc1 (configuration not stated) > 76.9 µM, COC(=O)Cn1c(=N)n(CCN2CCCCC2)c2ccccc21 > 76.9 µM, CCN(CC)c1ccc(NC(=O)c2ccc(Br)o2)c(C)c1 > 76.9 µM, O=C(Nc1ccccc1OC(F)F)c1ccc(F)cc1 > 76.9 µM, CCOC(=O)c1cccc(NC(=O)CSc2nnc(COc3ccccc3C)o2)c1 > 76.9 µM, Cc1nonc1NC(=O)CSc1ccc(-c2ccccc2)nn1 > 76.9 µM, Cc1ncsc1C(=O)NCc1ccc(N2CCCC2=O)cc1 > 76.9 µM, O=C(CN1CCN(c2ccccc2)CC1)N1CCN(c2ccccc2)CC1 > 76.9 µM, COC(=O)c1c(C)oc2ccc(NS(=O)(=O)c3cc(OC)ccc3OC)cc12 > 76.9 µM, CC(C)(C)NC(=O)C(c1ccco1)N(C(=O)Cn1nnc(-c2ccc(F)cc2)n1)c1ccccc1F (configuration not stated) > 76.9 µM, Cc1nc(NCCN2CCOCC2)c2oc3ccccc3c2n1 > 76.9 µM, Cc1ccc(C)c2nc(N3CCCC3)c(C#N)cc12 > 76.9 µM, CC(C)(C)NC(=O)NC(=O)COC(=O)C1CC(=O)N(Cc2ccccc2)C1 (configuration not stated) > 76.9 µM, COc1ccc(-c2nnc(SC(C)C(=O)Nc3nccs3)n2-c2ccccc2)cc1OC (configuration not stated) > 76.9 µM, Cc1cc(NC(=O)c2c(F)c(F)c(F)c(F)c2F)no1 > 76.9 µM, NC(=O)c1cc(S(=O)(=O)NC2CCCCC2)co1 > 76.9 µM, CCOC(=O)c1c(C)c(C(=O)NC(C)COC)c(C)n1CC (configuration not stated) > 76.9 µM, CCCCNc1nc2ccccc2nc1NS(=O)(=O)c1cccs1 > 76.9 µM, CCOC(=O)c1c(C)[nH]c(C(=O)CN2CCOCC2)c1C, CCn1c(SCC(=O)Nc2oc(-c3ccccc3)c(-c3ccccc3)c2C#N)nnc1-c1ccco1 > 76.9 µM, CN1C(=O)c2ccc(N3CCCC3)cc2C1=O > 76.9 µM

Potency, active:
COc1ccc2c(-c3cccnc3)cc(=O)[nH]c2c1 8.92 µM, CC(C)C(C)(C#N)NC(=O)CSc1nc2scc(-c3ccco3)c2c(=O)n1-c1ccccc1 (configuration not stated) 15.1 µM, Cc1cccc(N(C)S(=O)(=O)c2ccc3[nH]c(=O)c(=O)[nH]c3c2)c1 10.9 µM
